{"source": "PubChem BioAssay AID1768", "about": "(National Center for Advancing Translational Sciences (NCATS), 2009)", "note": "Screen size: about 270,000 compounds; about 620 (0.23%) were called active. The inconclusive results got no clear call from the source; some entries with a clear call stand among them for comparison. Calls follow the shape of the dose curve; as a rule, active = well fitted inhibition curve with a large enough effect in the polarisation, with a control signal flat (not every such curve was filed as active); inconclusive = small, poorly fitted or top-dose-only effect, or effect the other way, or a change in a side signal; inactive = no such curve, though single readings can be large or run the other way; the % refers to the polarisation. Potencies of inconclusive entries are doubtful fits and often do not repeat. A note “side channel” means that the fit belongs to a control or component signal, not to the main read-out. Potency is read from the fitted curve at half-maximal effect; tags tell the direction and shape of the fitted curve or compound fluorescence and quenching."}
{"target": "Menin (Homo sapiens) (UniProt O00255)", "sequence (O00255 whole entry, looked up)": "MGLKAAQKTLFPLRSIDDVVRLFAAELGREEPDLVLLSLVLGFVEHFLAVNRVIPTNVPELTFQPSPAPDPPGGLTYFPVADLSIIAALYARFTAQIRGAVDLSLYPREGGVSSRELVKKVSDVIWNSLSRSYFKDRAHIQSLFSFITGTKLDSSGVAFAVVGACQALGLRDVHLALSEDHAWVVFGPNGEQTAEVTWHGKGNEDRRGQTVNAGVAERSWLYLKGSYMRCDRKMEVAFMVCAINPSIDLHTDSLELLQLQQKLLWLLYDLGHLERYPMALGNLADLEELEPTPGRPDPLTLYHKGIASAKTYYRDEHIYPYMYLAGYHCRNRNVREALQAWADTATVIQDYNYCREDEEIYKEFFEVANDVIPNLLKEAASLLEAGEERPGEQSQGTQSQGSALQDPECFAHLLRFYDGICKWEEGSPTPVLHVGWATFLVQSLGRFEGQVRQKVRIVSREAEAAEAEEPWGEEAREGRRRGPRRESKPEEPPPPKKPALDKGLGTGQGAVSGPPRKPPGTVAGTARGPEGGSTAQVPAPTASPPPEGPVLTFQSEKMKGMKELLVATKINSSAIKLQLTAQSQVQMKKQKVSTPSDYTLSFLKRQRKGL", "experiment": "qHTS Assay for Inhibitors Targeting the Menin-MLL Interaction in MLL Related Leukemias: Competition With Texas Red Labeled MLL-derived Mutant Peptide; as to FP activity change, negative = inhibition: % of control where 0% means no effect", "settings": "fluorescence polarization; FP activity change, negative = inhibition: at 61.6 µM (top of the series)"}
{"smiles": "N#Cc1sc2nc(-c3ccccc3)cc(-c3ccco3)c2c1N", "Potency": "inconclusive: 10 µM [quencher, side channel, partial curve]"}
{"smiles": "Cc1ccc(C)c(NC(=O)C(Sc2nc3ccc(C)cc3[nH]2)c2ccccc2)c1", "note": "(configuration not stated)", "Potency": "inconclusive: 39.8 µM [inhibitor, single point]"}
{"smiles": "Cc1ccc(OCC(=O)N2CCc3ccccc3C2)c(C)c1", "Potency": "inconclusive: 20 µM [fluorescent, side channel, partial curve]"}
{"smiles": "COCCNC(=S)N/N=C/c1c2ccccc2cc2ccccc12", "Potency": "inconclusive: 39.8 µM [quencher, side channel, single point]"}
{"smiles": "Oc1c(Br)cc(C=Nc2ccc3nc(-c4ccccc4)[nH]c3c2)c(O)c1Br", "Potency": "inconclusive: 12.6 µM [quencher, side channel, partial curve]"}
{"smiles": "CC(C)(C)c1ccc(COC(=O)Nc2ccc(F)cc2)cc1", "Potency": "inconclusive: 39.8 µM [quencher, side channel, single point]"}
{"smiles": "COc1ccc(-c2cc(-c3ccc(O)cc3)nc(N)c2C#N)cc1", "Potency": "inconclusive: 15.8 µM [quencher, side channel, partial curve]"}
{"smiles": "O=C(Nc1ccc(Br)cc1)c1cc(-c2cccs2)on1", "Potency": "inconclusive: 31.6 µM [fluorescent, side channel, single point]"}
{"smiles": "CCC(Cc1ccccc1)NCc1c(C(=O)O)c(C)n(Cc2ccccc2)c1C", "note": "(configuration not stated)", "Potency": "inconclusive: 20 µM [fluorescent, side channel, partial curve]"}
{"smiles": "Cc1cc(C)n(-c2cc(N3CCN(S(=O)(=O)c4ccc5ccccc5c4)CC3)ccc2[N+](=O)[O-])n1", "Potency": "inconclusive: 39.8 µM [inhibitor, partial curve]"}
{"smiles": "COCCCNC(=S)N1CCN(c2nc(-c3ccc(F)cc3)cs2)CC1", "Potency": "inconclusive: 28.2 µM [quencher, side channel, single point]"}
{"smiles": "Cc1ccc(CNC(=O)C2CCCN(Cc3cnn(-c4ccccc4)c3-n3cccc3)C2)cc1", "note": "(configuration not stated)", "Potency": "inconclusive: 25.1 µM [fluorescent, side channel, single point]"}
{"smiles": "CC(C)C[C@H]1CN=C(Nc2ccccc2)N1CCC1CCCC1", "Potency": "inconclusive: 8.91 µM [inhibitor, partial curve]"}
{"smiles": "CCOC(=O)c1c(NC(=O)Cc2cccs2)sc(C(=O)NC2CCCCC2)c1C", "Potency": "inconclusive: 8.91 µM [inhibitor, single point]"}
{"smiles": "COc1ccc(Br)cc1/C=c1\\sc2nc(-c3ccco3)nn2c1=O", "Potency": "inconclusive: 39.8 µM [quencher, side channel, single point]"}
{"smiles": "Cc1ccc(-c2csc(NCCn3c(C(F)(F)F)nc4ccccc43)n2)cc1", "Potency": "inconclusive: 12.6 µM [quencher, side channel, partial curve]"}
{"smiles": "Cc1cc2nc(CSc3ccc(Cl)cc3)cc(=O)n2[nH]1", "Potency": "inconclusive: 39.8 µM [quencher, side channel, single point]"}
{"smiles": "CC1(C)Cc2c(ccc3ccccc23)C(c2cc3ccccc3oc2=O)=N1", "Potency": "inconclusive: 28.2 µM [fluorescent, side channel, partial curve]"}
{"smiles": "COc1ccc(NC(NC(=O)c2ccc(OC)cc2)C(Cl)(Cl)Cl)cc1", "note": "(configuration not stated)", "Potency": "inconclusive: 20 µM [quencher, side channel, partial curve]"}
{"smiles": "O=C(Nc1ccc2nc3n(c(=O)c2c1)CCCC3)c1cc([N+](=O)[O-])ccc1F", "FP activity change, negative = inhibition": "inactive: 15.6%"}
{"smiles": "O=C(CSCc1ccc(Cl)cc1)Nc1cc([N+](=O)[O-])ccc1O", "Potency": "inconclusive: 20 µM [quencher, side channel, partial curve]"}
{"smiles": "O=[N+]([O-])c1ccc(Nc2ccccn2)c([N+](=O)[O-])c1", "Potency": "inconclusive: 44.7 µM [quencher, side channel, partial curve]"}
{"smiles": "COC(CNC(=O)c1ccc2c(c1)ncn2-c1cc(C)cc(C)c1)OC", "Potency": "inconclusive: 39.8 µM [fluorescent, side channel, single point]"}
{"smiles": "Cc1nc(Nc2ccc(C(=O)O)cc2)nc(Nc2ccc(C(=O)O)cc2)c1[N+](=O)[O-]", "Potency": "inconclusive: 39.8 µM [quencher, side channel, single point]"}
{"smiles": "O=C(NNC(=S)Nc1ccc(Br)cc1Cl)c1ccncc1", "Potency": "inconclusive: 35.5 µM [quencher, side channel, single point]"}
{"smiles": "COc1ccc(-n2c(O)c(/C=N/NS(=O)(=O)c3cccc([N+](=O)[O-])c3)c3ccccc3c2=O)cc1OC", "Potency": "inconclusive: 31.6 µM [quencher, side channel, single point]"}
{"smiles": "C=CCOc1ccc(CNc2ccc3[nH]c(=O)[nH]c3c2)cc1OC", "FP activity change, negative = inhibition": "inactive: -13.9%"}
{"smiles": "CCOc1cc2[nH]c(=O)n(CCC(=O)N3CCN(c4ccccc4OC)CC3)c(=O)c2cc1OCC", "Potency": "inconclusive: 14.1 µM [inhibitor, partial curve]"}
{"smiles": "COc1ccc(Nc2nc(-c3cccs3)cs2)cc1", "Potency": "inconclusive: 11.2 µM [quencher, side channel, partial curve]"}
{"smiles": "Cc1ccc(-c2csc(=S)[nH]2)cc1", "FP activity change, negative = inhibition": "inactive: -4.64%"}
{"smiles": "O=C(Nc1ccc2c(c1)OCCO2)c1ccc(Br)o1", "Potency": "inconclusive: 31.6 µM [quencher, side channel, single point]"}
{"smiles": "O=C(CSC(=S)N1CCOCC1)c1cc(Br)cc(Br)c1O", "Potency": "inconclusive: 35.5 µM [quencher, side channel, single point]"}
{"smiles": "Cc1ccc(S(=O)(=O)n2nc(C)c(Br)c2C)c(C)c1C", "Potency": "inconclusive: 31.6 µM [inhibitor, single point]"}
{"smiles": "O=C1CN(c2nc(-c3ccccc3)c3cc(Cl)ccc3n2)c2ccccc2N1", "FP activity change, negative = inhibition": "inactive: 4.28%"}
{"smiles": "Cc1ccc(NC(=O)CN2C(=O)S/C(=C\\c3cc(C)n(C)c3C)C2=O)cc1", "FP activity change, negative = inhibition": "inactive: -1.6%"}
{"smiles": "NC(=O)c1ccsc1NC(=O)Cc1ccc([N+](=O)[O-])cc1", "Potency": "inconclusive: 12.6 µM [quencher, side channel, partial curve]"}
{"smiles": "Cc1ccc(-n2c(C)cc(C(=O)COC(=O)C3=NNC(=O)CC3)c2C)cc1", "Potency": "inconclusive: 39.8 µM [inhibitor, single point]"}
{"smiles": "C=CCOc1cccc(/C=N/NC(=O)C(=O)NCc2ccco2)c1", "Potency": "inconclusive: 0.631 µM [inhibitor, full curve, poor fit]"}
{"smiles": "OC[C@@H]1[C@@H](c2ccccc2)C(c2ccccc2)=NN1c1ccccc1", "Potency": "inconclusive: 31.6 µM [quencher, side channel, partial curve]"}
{"smiles": "O=C(NCc1ccccn1)c1ccc(CS(=O)(=O)Cc2ccc(Cl)cc2)o1", "FP activity change, negative = inhibition": "inactive: -22%"}
{"smiles": "Cc1[nH]n(-c2ccccc2)c(=O)c1-c1cccc(Cl)c1", "Potency": "inconclusive: 20 µM [quencher, side channel, single point]"}
{"smiles": "O=C(CCNC(=O)Cn1ccc2ccccc2c1=O)NCCCN1CCN(c2ccc(F)cc2)CC1", "Potency": "inconclusive: 2.82 µM [inhibitor, full curve, poor fit]"}
{"smiles": "CCN(CC)S(=O)(=O)c1ccc(O)c(NC(=O)c2cc(-c3cc(OC)c(OC)c(OC)c3)nc3ccccc23)c1", "Potency": "inconclusive: 10 µM [quencher, side channel, partial curve]"}
{"smiles": "O=C(c1ccco1)N1CCN(Cc2cccc(F)c2)CC1", "FP activity change, negative = inhibition": "inactive: 0.652%"}
{"smiles": "O=C(O)c1ccc2c(c1)C(=O)/C(=C\\c1ccco1)C2=O", "Potency": "inconclusive: 25.1 µM [quencher, side channel, partial curve]"}
{"smiles": "CCOc1cccc(NC(=O)C2CC(=O)N(C)C(=Nc3cccc(F)c3)S2)c1", "note": "(configuration not stated)", "Potency": "inconclusive: 25.1 µM [quencher, side channel, partial curve]"}
{"smiles": "COc1ccc(CCNc2oc(COc3ccc(F)cc3)nc2C#N)cc1", "Potency": "inconclusive: 28.2 µM [quencher, side channel, single point]"}
{"smiles": "COc1ccc2c(c1OC)C(=O)N1C2SC(C)(C)[C@H]1C(=O)NCC(C)C", "note": "(some centres not stated)", "Potency": "inconclusive: 25.1 µM [quencher, side channel, single point]"}
{"smiles": "Cc1ccc2cccc(NC(=S)NC(=O)c3ccccc3)c2n1", "Potency": "inconclusive: 15.8 µM [quencher, side channel, partial curve]"}
{"smiles": "O=C(Nc1nc2ccccc2n1CCN1CCCCC1)C1CCCCC1", "Potency": "inconclusive: 28.2 µM [fluorescent, side channel, single point]"}
{"smiles": "CNc1nc(SCC(=O)Nc2ccc(Cl)c(Cl)c2)nc(N2CCOCC2)n1", "Potency": "inconclusive: 39.8 µM [fluorescent, side channel, single point]"}
{"smiles": "Cc1ccc(C(=O)Nc2ccc(Br)c(C(F)(F)F)c2)cc1", "Potency": "inconclusive: 11.2 µM [quencher, side channel, partial curve]"}
{"smiles": "O=[N+]([O-])c1cccc2c[nH]nc12", "Potency": "inconclusive: 15.8 µM [quencher, side channel, partial curve]"}
{"smiles": "O=C(CSc1nnnn1-c1ccc2c(c1)OCCO2)c1cccc2c1OCCO2", "Potency": "inconclusive: 25.1 µM [quencher, side channel, single point]"}
{"smiles": "COCCOC(=O)C1=C(C)Nc2nc(C)nn2C1c1ccc(F)cc1", "note": "(configuration not stated)", "Potency": "inconclusive: 39.8 µM [inhibitor, partial curve, poor fit]"}
{"smiles": "O=C(Nc1nc2c(F)cc(F)cc2s1)c1ccc([N+](=O)[O-])o1", "Potency": "inconclusive: 17.8 µM [quencher, side channel, partial curve]"}
{"smiles": "CCOC(=O)N1CCN(Cc2nc3cc(NC(=O)CC(C)C)ccc3n2CC)CC1", "Potency": "inconclusive: 39.8 µM [inhibitor, partial curve]"}
